{"source": "the supplement of paper PMC8728848", "binders": {"B1": {"name": "Epa3 (Candida glabrata), Q6VBI8_CANGB (protein)", "chain": "MGSSHHHHHHSSGLVPRGSHMNDLGFSLFEKRELSSQNPFGYPIGCSPQDVAIIPGLTMELYSYPIVSGTPPNCYDASYVDPEYPRTGYLKRKMVGKSTGVTGNLNYKYSVEKACMVKYGNLPAGYNYNEPLTVSNFTMILYGYFKAQTTGLHTFFVNADDLLYINFGAGNAFDCCKREDSKTKLGEYVAYDIWHVDSSKNKVSLFLEKDLYYPIRMFFNNIGKDSSLDLSFSVNGATDQISDFSGYLYSVPDQPDTCPAHIGYDTTCR"}}, "experiment_in_all_cases": "glycan array binding signal (z-score within array); higher = stronger binding", "details_in_all_cases": "glycan notation: IUPAC condensed, linker removed", "key": {"[1]": {"target": "Gal(b1-4)GlcNAc(b1-6)Gal(b1-4)GlcNAc", "in_short": "(§1)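 From the Consortium for Functional Glycomics database, 3228 arrays were curated, keeping only those whose protein sequence was available. Binding is given as a within-array Z-score averaged across arrays sharing a protein sequence and across linkers. Negative Z-scores can be read as non-binding.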"}, "[2]": {"target": "Gal(b1-4)GlcNAc(b1-6)GalNAc", "in_short": "as §1"}, "[3]": {"target": "Gal(b1-4)GlcNAc(b1-6)[Gal(b1-3)]GalNAc", "in_short": "as §1"}, "[4]": {"target": "Gal(b1-4)GlcNAc(b1-6)[Gal(b1-4)GlcNAc(b1-3)]GalNAc", "in_short": "as §1"}, "Gal(b1-4)GlcNAc6P": {"target": "Gal(b1-4)GlcNAc6P", "in_short": "as §1"}, "Gal(b1-6)Gal": {"target": "Gal(b1-6)Gal", "in_short": "as §1"}, "Gal3S(b1-3)GalNAc": {"target": "Gal3S(b1-3)GalNAc", "in_short": "as §1"}, "Gal3S(b1-3)GlcNAc": {"target": "Gal3S(b1-3)GlcNAc", "in_short": "as §1"}, "[5]": {"target": "Gal3S(b1-3)[Fuc(a1-4)]GlcNAc", "in_short": "as §1"}, "Gal3S(b1-4)Glc": {"target": "Gal3S(b1-4)Glc", "in_short": "as §1"}, "Gal3S(b1-4)Glc6S": {"target": "Gal3S(b1-4)Glc6S", "in_short": "as §1"}, "Gal3S(b1-4)GlcNAc": {"target": "Gal3S(b1-4)GlcNAc", "in_short": "as §1"}, "[6]": {"target": "Gal3S(b1-4)[Fuc(a1-3)]Glc6S", "in_short": "as §1"}, "[7]": {"target": "Gal3S(b1-4)[Fuc(a1-3)]GlcNAc", "in_short": "as §1"}, "[8]": {"target": "Gal3S(b1-4)[Fuc(a1-3)]GlcNAc6S", "in_short": "as §1"}, "Gal3S4S(b1-4)GlcNAc": {"target": "Gal3S4S(b1-4)GlcNAc", "in_short": "as §1"}, "Gal3S6S(b1-4)GlcNAc": {"target": "Gal3S6S(b1-4)GlcNAc", "in_short": "as §1"}, "Gal3S6S(b1-4)GlcNAc6S": {"target": "Gal3S6S(b1-4)GlcNAc6S", "in_short": "as §1"}, "Gal4S(b1-4)GlcNAc": {"target": "Gal4S(b1-4)GlcNAc", "in_short": "as §1"}, "Gal4S6S(b1-4)GlcNAc": {"target": "Gal4S6S(b1-4)GlcNAc", "in_short": "as §1"}, "Gal6P(b1-4)GlcNAc": {"target": "Gal6P(b1-4)GlcNAc", "in_short": "as §1"}, "Gal6S(b1-3)GlcNAc": {"target": "Gal6S(b1-3)GlcNAc", "in_short": "as §1"}, "Gal6S(b1-3)GlcNAc6S": {"target": "Gal6S(b1-3)GlcNAc6S", "in_short": "as §1"}, "Gal6S(b1-4)Glc": {"target": "Gal6S(b1-4)Glc", "in_short": "as §1"}, "Gal6S(b1-4)Glc6S": {"target": "Gal6S(b1-4)Glc6S", "in_short": "as §1"}, "Gal6S(b1-4)GlcNAc": {"target": "Gal6S(b1-4)GlcNAc", "in_short": "as §1"}, "Gal6S(b1-4)GlcNAc6S": {"target": "Gal6S(b1-4)GlcNAc6S", "in_short": "as §1"}, "GalNAc(a1-3)Gal": {"target": "GalNAc(a1-3)Gal", "in_short": "as §1"}, "GalNAc(a1-3)GalNAc": {"target": "GalNAc(a1-3)GalNAc", "in_short": "as §1"}, "[9]": {"target": "GalNAc(a1-3)GalNAc(b1-3)Gal(a1-4)Gal(b1-4)Glc", "in_short": "as §1"}, "[10]": {"target": "GalNAc(a1-3)GalNAc(b1-3)Gal(a1-4)Gal(b1-4)GlcNAc", "in_short": "as §1"}, "GalNAc(b1-3)Gal": {"target": "GalNAc(b1-3)Gal", "in_short": "as §1"}, "[11]": {"target": "GalNAc(b1-3)Gal(a1-4)Gal(b1-4)GlcNAc", "in_short": "as §1"}, "[12]": {"target": "GalNAc(b1-3)Gal(a1-4)Gal(b1-4)GlcNAc(b1-3)Gal(b1-4)Glc", "in_short": "as §1"}, "[13]": {"target": "GalNAc(b1-3)Gal(a1-6)Gal(b1-4)Glc", "in_short": "as §1"}, "GalNAc(b1-3)GalNAc": {"target": "GalNAc(b1-3)GalNAc", "in_short": "as §1"}, "GalNAc(b1-3)GlcNAc": {"target": "GalNAc(b1-3)GlcNAc", "in_short": "as §1"}, "GalNAc(b1-4)Gal(b1-4)Glc": {"target": "GalNAc(b1-4)Gal(b1-4)Glc", "in_short": "as §1"}}, "note": "The other results are listed elsewhere or left out.", "data": [{"binder": "B1", "values": [{"measurement": "glycan array binding signal (z-score)", "setting": "[1]", "result": -0.194}, {"measurement": "glycan array binding signal (z-score)", "setting": "[2]", "result": -0.001}, {"measurement": "glycan array binding signal (z-score)", "setting": "[3]", "result": 1.35}, {"measurement": "glycan array binding signal (z-score)", "setting": "[4]", "result": -0.246}, {"measurement": "glycan array binding signal (z-score)", "setting": "Gal(b1-4)GlcNAc6P", "result": -0.201}, {"measurement": "glycan array binding signal (z-score)", "setting": "Gal(b1-6)Gal", "result": -0.174}, {"measurement": "glycan array binding signal (z-score)", "setting": "Gal3S(b1-3)GalNAc", "result": -0.228}, {"measurement": "glycan array binding signal (z-score)", "setting": "Gal3S(b1-3)GlcNAc", "result": -0.084}, {"measurement": "glycan array binding signal (z-score)", "setting": "[5]", "result": -0.197}, {"measurement": "glycan array binding signal (z-score)", "setting": "Gal3S(b1-4)Glc", "result": -0.114}, {"measurement": "glycan array binding signal (z-score)", "setting": "Gal3S(b1-4)Glc6S", "result": -0.161}, {"measurement": "glycan array binding signal (z-score)", "setting": "Gal3S(b1-4)GlcNAc", "result": -0.135}, {"measurement": "glycan array binding signal (z-score)", "setting": "[6]", "result": 0.312}, {"measurement": "glycan array binding signal (z-score)", "setting": "[7]", "result": -0.159}, {"measurement": "glycan array binding signal (z-score)", "setting": "[8]", "result": -0.189}, {"measurement": "glycan array binding signal (z-score)", "setting": "Gal3S4S(b1-4)GlcNAc", "result": 0.01}, {"measurement": "glycan array binding signal (z-score)", "setting": "Gal3S6S(b1-4)GlcNAc", "result": -0.123}, {"measurement": "glycan array binding signal (z-score)", "setting": "Gal3S6S(b1-4)GlcNAc6S", "result": -0.106}, {"measurement": "glycan array binding signal (z-score)", "setting": "Gal4S(b1-4)GlcNAc", "result": -0.172}, {"measurement": "glycan array binding signal (z-score)", "setting": "Gal4S6S(b1-4)GlcNAc", "result": -0.088}, {"measurement": "glycan array binding signal (z-score)", "setting": "Gal6P(b1-4)GlcNAc", "result": -0.185}, {"measurement": "glycan array binding signal (z-score)", "setting": "Gal6S(b1-3)GlcNAc", "result": -0.145}, {"measurement": "glycan array binding signal (z-score)", "setting": "Gal6S(b1-3)GlcNAc6S", "result": -0.07}, {"measurement": "glycan array binding signal (z-score)", "setting": "Gal6S(b1-4)Glc", "result": -0.251}, {"measurement": "glycan array binding signal (z-score)", "setting": "Gal6S(b1-4)Glc6S", "result": 0.114}, {"measurement": "glycan array binding signal (z-score)", "setting": "Gal6S(b1-4)GlcNAc", "result": -0.31}, {"measurement": "glycan array binding signal (z-score)", "setting": "Gal6S(b1-4)GlcNAc6S", "result": 0.045}, {"measurement": "glycan array binding signal (z-score)", "setting": "GalNAc(a1-3)Gal", "result": -0.141}, {"measurement": "glycan array binding signal (z-score)", "setting": "GalNAc(a1-3)GalNAc", "result": -0.222}, {"measurement": "glycan array binding signal (z-score)", "setting": "[9]", "result": -0.375}, {"measurement": "glycan array binding signal (z-score)", "setting": "[10]", "result": -0.337}, {"measurement": "glycan array binding signal (z-score)", "setting": "GalNAc(b1-3)Gal", "result": -0.241}, {"measurement": "glycan array binding signal (z-score)", "setting": "[11]", "result": -0.044}, {"measurement": "glycan array binding signal (z-score)", "setting": "[12]", "result": -0.166}, {"measurement": "glycan array binding signal (z-score)", "setting": "[13]", "result": -0.27}, {"measurement": "glycan array binding signal (z-score)", "setting": "GalNAc(b1-3)GalNAc", "result": -0.13}, {"measurement": "glycan array binding signal (z-score)", "setting": "GalNAc(b1-3)GlcNAc", "result": -0.122}, {"measurement": "glycan array binding signal (z-score)", "setting": "GalNAc(b1-4)Gal(b1-4)Glc", "result": -0.183}]}]}
